# Hit rate of the full screen: of about 390,000 compounds, about 17,000 (4.4%) were called active. This list was built around the results that the source calls inconclusive (neither active nor inactive); the mix of calls is not that of the screen. The call rests on the fitted dose curve; in most records, active means well fitted inhibition curve with a large enough effect; inconclusive means small, poorly fitted or top-dose-only effect; inactive means no such curve, though single readings can be large or run the other way. Where the call is inconclusive, the potency comes from a doubtful curve fit.
# Biological target: Lysine-specific demethylase 4A (Homo sapiens) (UniProt O75164)
# Assay: qHTS Assay for Inhibitors of JMJD2A-Tudor Domain; further: nearly all actives have a fitted effect of over 50% in size
# Settings: AlphaScreen JMJD2A-Tudor / H3K4me3 peptide binding; activity change, negative = inhibition: at 114 µM (top of the series)
# On the % scale 0 is the no-effect control and ±100 the full control effect; potency means the concentration at half of the fitted maximal effect; tags describe the fitted curve by direction and shape.
# Chain of UniProt O75164 (O75164 whole entry, looked up, the tested form may be a part): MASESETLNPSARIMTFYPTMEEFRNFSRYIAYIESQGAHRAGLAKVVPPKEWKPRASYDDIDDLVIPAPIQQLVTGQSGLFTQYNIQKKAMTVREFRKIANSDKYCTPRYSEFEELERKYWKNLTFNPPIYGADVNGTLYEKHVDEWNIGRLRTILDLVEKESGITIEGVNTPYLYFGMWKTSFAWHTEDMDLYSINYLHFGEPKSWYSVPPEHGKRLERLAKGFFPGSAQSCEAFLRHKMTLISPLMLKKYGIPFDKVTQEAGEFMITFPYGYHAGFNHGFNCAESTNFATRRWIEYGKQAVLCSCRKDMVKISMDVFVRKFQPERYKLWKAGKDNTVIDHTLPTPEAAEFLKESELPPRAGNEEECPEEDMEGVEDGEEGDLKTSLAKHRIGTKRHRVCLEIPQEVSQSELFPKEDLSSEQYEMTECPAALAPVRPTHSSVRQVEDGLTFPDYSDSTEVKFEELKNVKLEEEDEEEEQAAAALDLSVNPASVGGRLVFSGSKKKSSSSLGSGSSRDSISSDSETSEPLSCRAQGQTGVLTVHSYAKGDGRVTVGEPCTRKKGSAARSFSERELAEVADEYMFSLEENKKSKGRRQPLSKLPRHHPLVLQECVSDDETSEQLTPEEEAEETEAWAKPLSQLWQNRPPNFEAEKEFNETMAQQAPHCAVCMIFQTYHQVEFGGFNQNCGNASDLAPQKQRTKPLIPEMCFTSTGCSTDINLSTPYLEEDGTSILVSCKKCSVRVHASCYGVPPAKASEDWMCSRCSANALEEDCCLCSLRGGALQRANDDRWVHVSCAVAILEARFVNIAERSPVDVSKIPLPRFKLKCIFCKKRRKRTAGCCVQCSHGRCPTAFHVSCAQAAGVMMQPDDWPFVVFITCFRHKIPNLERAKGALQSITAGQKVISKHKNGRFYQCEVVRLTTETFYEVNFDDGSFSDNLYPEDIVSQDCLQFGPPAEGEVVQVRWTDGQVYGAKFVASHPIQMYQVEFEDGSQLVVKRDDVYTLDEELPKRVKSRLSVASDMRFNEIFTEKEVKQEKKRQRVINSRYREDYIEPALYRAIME
SMILES,Potency,"activity change, negative = inhibition"
COc1ccc(NC(=O)Nc2ccc(Cc3ccncc3)cc2)c(OC)c1,"inconclusive: 63.1 µM [inhibitor, single point]",–
COc1ccc(CN2C(=O)C(C)Nc3ncnc(N4CCN(c5ccccn5)CC4)c32)cc1 (configuration not stated),"inconclusive: 89.1 µM [inhibitor, partial curve, poor fit]",–
O=C(Cc1cccs1)NCc1cccc(Cl)c1,active: 89.1 µM,–
O=[N+]([O-])c1cccc(-c2nc3ccccc3s/c2=N/O)c1,"inconclusive: 22.4 µM [inhibitor, full curve]",–
CC(Oc1ccc(Br)cc1)C(=O)Nc1ccc(N2CCOCC2)cc1N1CCOCC1 (configuration not stated),"inconclusive: 44.7 µM [inhibitor, partial curve]",–
O=C(O)c1ccc(N=Nc2c(O)[nH]c3ccc(Br)cc23)cc1,"inconclusive: 50.1 µM [inhibitor, partial curve]",–
Cc1ccccc1Nc1nnc(SCC(=O)Nc2ccccc2[N+](=O)[O-])s1,"inconclusive: 44.7 µM [inhibitor, partial curve]",–
COc1ccc([C@@]2(O)c3c(ccc(CC=C(C)C)c3O)NC(=O)[C@@H]2OC)cc1,"inconclusive: 56.2 µM [inhibitor, partial curve]",–
COc1cccc(NC(=O)C2CCN(Cc3cnn(-c4ccccc4)c3-n3cccc3)CC2)c1,"inconclusive: 50.1 µM [inhibitor, partial curve]",–
Cc1cc(=O)[nH]c(N/N=C/c2ccc(Br)s2)n1,inactive,–
CCN(CC)c1ccc(NC(=O)c2cccc(F)c2)c(C)c1,"inconclusive: 63.1 µM [inhibitor, partial curve, poor fit]",–
N#Cc1nc(-c2cccs2)oc1N1CCN(Cc2ccccc2)CC1,"inconclusive: 22.4 µM [inhibitor, partial curve]",–
O=C(NN1CCOCC1)c1ccc(Cl)c([N+](=O)[O-])c1,inactive,–
COc1ccc(-c2nc(-c3ccccc3)c(-c3cccs3)[nH]2)cc1OC,active: 39.8 µM,–
CCCCN1CC[C@H]2C=CC[C@@H](C(=O)Nc3nccs3)[C@H]2C1=O,inactive,–
N#CCCNC(=O)CCN1CCOCC1,"inconclusive: 56.2 µM [inhibitor, partial curve]",–
COCCCNc1oc(-c2ccc(COc3ccccc3C)o2)nc1C#N,"inconclusive: 25.1 µM [inhibitor, full curve]",–
O=C1/C(=C/c2cccc(F)c2)SC(=S)N1NS(=O)(=O)c1ccccc1,inactive,–
CC1CN(C(=O)C(C)N2CCN(c3cccc(Cl)c3)CC2)CC(C)O1 (configuration not stated),active: 63.1 µM,–
Cc1ccc(S(=O)(=O)N2CCN(C(=O)COc3ccc(-c4nnco4)cc3)CC2)cc1,inactive,–
Cc1nnc(N(Cc2ccco2)C(=O)c2cccc(C#N)c2)s1,–,inactive: -9.92% [at 11.4 µM]
S=c1[nH]nc(COc2ccc(Cl)cc2)n1Cc1ccco1,"inconclusive: 56.2 µM [inhibitor, partial curve]",–
Cc1ccc(C)c(OCCCC(=O)N2CCOCC2)c1,"inconclusive: 79.4 µM [inhibitor, partial curve]",–
Cn1c(Cc2ccccc2)n[nH]c1=S,active: 28.2 µM,–

SMILES,Potency,"activity change, negative = inhibition"
CCOC(=O)N1CCN(Cc2oc(CO)cc(=O)c2O)CC1,"inconclusive: 15.8 µM [inhibitor, full curve]",–
Cc1cccc(Nc2n[nH]c(=S)s2)c1C,active: 5.62 µM,–
COC(=O)C1=C(C)N=C2SC(C#N)=C(N)N2C1c1cc(OC)c(OC)c(OC)c1 (configuration not stated),inactive,–
C/C(Cn1nc([N+](=O)[O-])cc1C)=N\NC(=O)c1ccc(C(C)(C)C)cc1,"inconclusive: 100 µM [inhibitor, single point]",–
O=C(O)CN1C(=O)/C(=C\c2ccccc2OCc2ccc(Cl)cc2Cl)SC1=S,active: 56.2 µM,–
Nc1scc2c(C(=O)N/N=C/c3ccc(Cl)cc3)nn(-c3ccccc3)c(=O)c12,active: 44.7 µM,–
Cn1c(=O)n(C)c2cc(NS(=O)(=O)c3ccc(Cl)cc3)c(NCc3ccccc3)cc21,"inconclusive: 31.6 µM [inhibitor, partial curve]",–
CCC(c1nnc(SCc2nc3ccccc3s2)n1Cc1ccccc1)N(C)C (configuration not stated),inactive,–
Cc1nc2ccccn2c1C(O)(c1ccccc1)c1ccccc1,inactive,–
Cc1cc(C#N)c(C)n1-c1cc(S(=O)(=O)N2CCOCC2)ccc1N1CCCC1,"inconclusive: 56.2 µM [inhibitor, partial curve]",–
COC(=O)[C@@]1(C)[C@H]2C(=O)N(Cc3ccccc3)C(=O)[C@H]2[C@H]2CN=C(SCc3ccccc3)N21,"inconclusive: 56.2 µM [inhibitor, partial curve]",–
CCOc1ccc(N(C(C)C(=O)N2CCCC2)S(C)(=O)=O)cc1 (configuration not stated),"inconclusive: 35.5 µM [inhibitor, partial curve]",–
O=C(Nc1ccccc1C(=O)N1CCN(CCO)CC1)c1cccc([N+](=O)[O-])c1,inactive,–
Cc1ccccc1C(=O)Nc1ccnn1C1CCN(Cc2c(C)n(C)c3ccccc23)CC1,"inconclusive: 44.7 µM [inhibitor, partial curve]",–
O=C1/C(=C\c2ccc(Br)cc2)SC(=S)N1NS(=O)(=O)c1ccccc1,"inconclusive: 25.1 µM [inhibitor, single point]",–
CCOC(=O)C1=C(CN2CCN(c3ccc(Cl)cc3)CC2)NC(=O)NC1c1ccc(F)cc1 (configuration not stated),"inconclusive: 28.2 µM [inhibitor, full curve, poor fit]",–
CCc1ccc(NC(=O)Nc2ccsc2C(=O)OC)cc1,inactive,–
CN1C(=O)C(c2nnc(Nc3cccc4ccccc34)s2)C2CC1(C)Oc1ccccc12 (configuration not stated),"inconclusive: 39.8 µM [inhibitor, partial curve]",–
COc1ccc2c(c1)CC(C(=O)Nc1c(C)cc(C)cc1C)CO2 (configuration not stated),inactive,–
O=c1[nH]c(=S)[nH]c2sc3c(c12)CCCCCC3,"inconclusive: 56.2 µM [inhibitor, partial curve]",–
CCN1C(=O)/C(=C/c2ccc(N3CCCC3)cc2)NC1=S,"inconclusive: 70.8 µM [inhibitor, single point]",–
Cc1nn2c(=O)cc(COC(=O)c3ccccc3NC(=O)C3CCCCC3)nc2s1,inactive,–
C#CCN(N(C)c1ncc(C(F)(F)F)cc1Cl)S(=O)(=O)c1ccc2ccccc2c1,"inconclusive: 70.8 µM [inhibitor, single point]",–
O=C(N/N=C/c1cc([N+](=O)[O-])ccc1O)c1cccc(N2CCCC2=O)c1,active: 31.6 µM,–

SMILES,Potency,"activity change, negative = inhibition"
CCc1ccc(-c2nc(CN3CCCC(C(=O)NCc4ccccc4Cl)C3)c(C)o2)cc1 (configuration not stated),"inconclusive: 31.6 µM [inhibitor, partial curve]",–
COc1ccc(N(CC(=O)NC2CCCC2)S(=O)(=O)c2ccc(NC(C)=O)cc2)cc1,inactive,–
C/C(=N\Nc1cc(-c2ccccc2)nc(-c2ccc(Br)cc2)n1)c1cccc(N)c1,"inconclusive: 50.1 µM [inhibitor, partial curve]",–
COc1ccc(C(NC(C)=O)c2cc(Cl)c3cccnc3c2O)cc1 (configuration not stated),"inconclusive: 79.4 µM [inhibitor, partial curve]",–
COc1cc2c(cc1OC)C(c1ccc(-c3ccc(Cl)c(Cl)c3)o1)=NCC2,active: 17.8 µM,–
COc1ccccc1CNc1ccc(N2CCCCC2)cc1,active: 31.6 µM,–
COc1ccc(CNC(=O)c2ccc(-c3nc(CSc4ccccc4)c(C)o3)cc2)cc1,"inconclusive: 63.1 µM [inhibitor, partial curve, poor fit]",–
S=c1[nH]nc(COc2ccccc2)n1/N=C/C(Cl)=C/c1ccccc1,"inconclusive: 44.7 µM [inhibitor, partial curve]",–
c1ccc(-n2cnnc2SCc2cn3ccccc3n2)cc1,inactive,–
CCOC(=O)c1cnc2c(OC)cccc2c1N1CCN(c2ccccc2F)CC1,"inconclusive: 35.5 µM [inhibitor, partial curve]",–
COC(=O)C1=C(C)NC(=O)/C1=C\c1cc(C)n(-c2ccccc2)c1C,"inconclusive: 44.7 µM [inhibitor, partial curve]",–
O=[N+]([O-])c1cccc2ccc(/C=C/c3ccc(C(F)(F)F)cc3)nc12,"inconclusive: 25.1 µM [inhibitor, single point]",–
CC(=Nc1ccc(O)cc1)c1sc2ccccc2c1O,inactive,–
O=C(Oc1c(CN2CCOCC2)cc(Cl)c2cccnc12)c1ccccc1Cl,active: 50.1 µM,–
CCc1ccc(CN(C)C(=O)c2cc(COc3ccc(-n4cncn4)cc3)on2)cc1,inactive,–
O=c1ccc(Cl)nn1-c1ccccc1,"inconclusive: 89.1 µM [inhibitor, single point]",–
CCOc1ccc(C(=O)N/N=C/c2cc([N+](=O)[O-])cs2)cc1,"inconclusive: 50.1 µM [inhibitor, partial curve]",–
O=C(NCCCN1CCCC1=O)c1c(O)nc2sccn2c1=O,active: 35.5 µM,–
Cc1cc(C)c2c(n1)sc1c(N3CCN(CCO)CC3)ncnc12,inactive,–
CC(=O)CCc1ccc(OCC(O)CNC2CCCc3ccccc32)cc1 (configuration not stated),active: 3.55 µM,–
O=C1[C@@H]2C(c3cccnc3)=NO[C@@H]2C(=O)N1c1ccc(Br)cc1,"inconclusive: 89.1 µM [inhibitor, single point]",–
CCc1c(C)sc(NC(=S)N2CCN(C(=O)C3CCCO3)CC2)c1C(=O)OC (configuration not stated),"inconclusive: 25.1 µM [inhibitor, full curve]",–
COCc1cc(=O)[nH]c(Nc2nc3ccccc3o2)n1,active: 79.4 µM,–
CCc1ccc(/C=N/n2c(COc3ccccc3)n[nH]c2=S)cc1,"inconclusive: 44.7 µM [inhibitor, partial curve]",–

# Source: PubChem BioAssay AID504339 (National Center for Advancing Translational Sciences (NCATS), 2011)
